From paper PMC12136788
The other results are listed elsewhere or left out.

B1: chr7:98206920:98207021:+|3pUTR|ENSG00000164715|unk|total|mutant (ssRNA)
RNA: GGGAGUUCUACAGUCCGACGAUCGUUCUGCAUUAAGCCCCAGGUUCUCUUCUGGCUUUGAAAGGGCCCGAGUGCUCCCAGUGCCGCUUCGUCACAUCGUCACGAGCCCCUGUGGUCAUGGGCGACCUCACACCUCCCUCCCUGCAACAGAGGAUUGAGCAUCA
B2: chr15:52547342:52547511:-|3pUTR|ENSG00000128989|msi1|total|mutant (ssRNA)
RNA: GGGAGUUCUACAGUCCGACGAUCAACAUAUUUAAUAUUAUGCCCUUGGAUCUGUUACUGCAUCACCCGCACUUGUGAUGCAACCGAACACUUCGCCUGUACUGAAAGGGCCAAGAGUAAAUGCCUUGUUUUGUUUUUUUGUUUCAACAGAGGAUUGAGCAUCA
B3: chr14:80199969:80200157:-|3pUTR|ENSG00000211448|msi1|total|mutant (ssRNA)
RNA: GGGAGUUCUACAGUCCGACGAUCUUUAUGAUUUCUUGUGAUGUAUUCUUUUAUGAAAUUAACAAGAACUCAUUAUUUUGAGGCCGAGGAAAAUCAAUGCUUUAUCUGAUAUGCUGAGAAAUUAUCCGAUUGCCAAUACUCAUGCAACAGAGGAUUGAGCAUCA
B4: chr7:111727939:111728040:-|3pUTR|ENSG00000128512|unk|FALSE|unique (ssRNA)
RNA: GGGAGUUCUACAGUCCGACGAUCAAGUGGUAAAUAGUGAUAAAGACUCCUUUUGUACCUUUUUAUGUUCACUUUUUUUUAUAUAGUUUAAUCUUAAAACCAAUACGAUAUUGUCAAACGAUACAAUGUGUGACAAUGUUGUAUCAACAGAGGAUUGAGCAUCA
B5: chr2:89268000:89268296:-|CDS|ENSG00000242076|control|control|control (ssRNA)
RNA: GGGAGUUCUACAGUCCGACGAUCUCCCUGUCUGCAUCUGUAGGAGACAGAGUCACCAUCACUUGCCAGGCGAGUCAGGACAUUAGCAACUAUUUAAAUUGGUAUCAGCAGAAACCAGGGAAAGCCCCUAAGCUCCUGAUCUACCAACAGAGGAUUGAGCAUCA
B6: chr10:58277235:58277315:+|CDS|ENSG00000122873|msi1_unk|FALSE|overlapping (ssRNA)
RNA: GGGAGUUCUACAGUCCGACGAUCUAAAGAUCAUCGAAAUAAAGCUAUGAUAAACCUUCACAUCCAGAAAGACAACCCCAAGAUAGUACAUGCUUUUGACAUGGAGGAUUUGGGAGAUAAAGCUGUGUACUGCCGUUGUUGGAGCAACAGAGGAUUGAGCAUCA
B7: chr8:37861146:37861251:-|3pUTR|ENSG00000156675|unk|FALSE|unique (ssRNA)
RNA: GGGAGUUCUACAGUCCGACGAUCCUGUGCAGAGCAAGAAGAUGAUACUUAUUUUUGAAUUUGUAUUUUUAAAACUAGAUUUAUAGACUUUUUUUUUUUUUAACUAGGGCACUUGCUUCCUUCUUAGCUAAAAGCACCAGCUGACAACAGAGGAUUGAGCAUCA
B8: chr1:180885099:180885158:+|3pUTR|ENSG00000143324|msi1_unk|FALSE|overlapping (ssRNA)
RNA: GGGAGUUCUACAGUCCGACGAUCAGCUGAAGCUAUGCCUUAUUAUGCAUCCACAUGUAUGGUCCCUGUAGCGUGACCUUUACUAGCUCUGAAUCAGAAGACAGAGCUAUUUCAGAGGCUCUGUGUGCCCUCACUAGAUAGUUUCAACAGAGGAUUGAGCAUCA
B9: chr22:30522798:30525066:-|three_prime_utr|ENSG00000214491|control|control|control (ssRNA)
RNA: GGGAGUUCUACAGUCCGACGAUCGCUACACCGUGGAGGUACUGCUCCCAGACCAAACCUUCAUGGAGAAGAUGGAGAAAUUCUAGGUGAACCUCAUGGUCCCCACACCCUCCUCUUUGAUCUCUGAAUCCACAAUGAGUUCACCAACAGAGGAUUGAGCAUCA
B10: ENSG00000124766:be:win_1901|3pUTR|ENSG00000124766|bound_else_gene|NA|bound_elsewhere_windowed (ssRNA)
RNA: GGGAGUUCUACAGUCCGACGAUCUUAUUUUGCUUCUUGGUCAAGAAAGGAGGGGAGAACCCAGCGCACCCCUCCCCCCCUUUUUUUAAACGCGUGAUGAAGACAGAAGGCUCCGGGGUGACGAAUUUGGCCGAUGGCAGAUGUCAACAGAGGAUUGAGCAUCA
B11: chr11:46542767:46542868:-|CDS|ENSG00000110497|msi1|FALSE|unique (ssRNA)
RNA: GGGAGUUCUACAGUCCGACGAUCAACACGCUCCGCAACCUCAGUCUGGGUCCUACCCGCCGCUCUUUGGGAGGGCCUCUGUCUAGCCACCCUUCUAGGUAUCACCGAGAAAUAGCUCCUGGGUUGACAGGAUCUGAGUGGACCCAACAGAGGAUUGAGCAUCA
B12: chrX:130230552:130230660:-|CDS|ENSG00000056277|unk|FALSE|unique (ssRNA)
RNA: GGGAGUUCUACAGUCCGACGAUCAUCAGAACGUCCAUGUGAUGAAGACAAGACUGAUUCAGAGACAGGAAAGUUGAUCAUGUUAGUCAAUGAGUUUUAUUAUGGAAGGCAUGAAGGAGUCACUGAGAAAGAGCCAAAGACUUACAACAGAGGAUUGAGCAUCA
B13: ENSG00000136451:be:win_701|CDS|ENSG00000136451|bound_else_gene|NA|bound_elsewhere_windowed (ssRNA)
RNA: GGGAGUUCUACAGUCCGACGAUCGCAGUGUUUGUGGGAAAGGCUUCUCAAGGCCUGACCACUUAAGCUGUCAUGUAAAACAUGUCCAUUCAACAGAAAGACCCUUCAAAUGCCAAACGUGCACUGCUGCCUUUGCCACCAAAGCAACAGAGGAUUGAGCAUCA
B14: chr2:27133116:27133337:-|CDS|ENSG00000138073|control|control|control (ssRNA)
RNA: GGGAGUUCUACAGUCCGACGAUCACCCAGCACGAGGGGCUAGAACUCAGGGUAGAGAAUUUGCAGGCGGUGCAGACAGACUUUAGCUCCGAUCCACUGCAGAAAGUUGUGUGCUUCAACCACGAUAAUACCCUGCUUGCCACUCAACAGAGGAUUGAGCAUCA
B15: ENSG00000109099:stop:overlap|stop_codon|ENSG00000109099|stop_codon|NA|stop_codon (ssRNA)
RNA: GGGAGUUCUACAGUCCGACGAUCCAUUAGAUAAGUCAGACAGAGCCCAAGAGACAACUUCAGUAUUUCUUAAAGACAAGAGUUAGCACUUUGGAGAUGCAAGCCGUGGAAGAGUGGGGCAAGAUAAUUAAGGAUCCUGGACCUCAACAGAGGAUUGAGCAUCA
B16: chr4:123402332:123402450:+|CDS|ENSG00000164056|unk|total|mutant (ssRNA)
RNA: GGGAGUUCUACAGUCCGACGAUCGACGAAGGGGAUUCCUAUUCAGAUAAUCCUUGCUCCUGUUCACAAUCACACUGCUGCUCCCGAUACCUGUGUAUGGGAGCCAUGUCUUUAUUUUUACCUUGCUUACUCUGUUAUCCUCCUCAACAGAGGAUUGAGCAUCA
B17: ENSG00000198589:be:win_7201|CDS|ENSG00000198589|bound_else_gene|NA|bound_elsewhere_windowed (ssRNA)
RNA: GGGAGUUCUACAGUCCGACGAUCGAGAGUGAAUUUGUUUCCUGCCAGCUUCACCAAUGGAUUGAUCUCAUUUUUGGCUAUAAACAGCAAGGACCAGAAGCUGUCCGAGCCCUCAAUGUGUUCUAUUACUUGACCUAUGAAGGACAACAGAGGAUUGAGCAUCA
B18: chr17:80295660:80295761:+|CDS|ENSG00000173821|msi1|FALSE|bound_elsewhere (ssRNA)
RNA: GGGAGUUCUACAGUCCGACGAUCGAGUAAACUGAAAACAGGCCUGAUUGUCCUUUUUGUAGUGGAAAAAAUUGAGCUUUUAUUAGAAGGCAGCCUGGACUGGUUGUGUCACCUCCUAACCUCAGAUGCCAGCUCACCAGAUGACAACAGAGGAUUGAGCAUCA
B19: chr2:165759335:165759570:-|CDS|ENSG00000115339|control|control|control (ssRNA)
RNA: GGGAGUUCUACAGUCCGACGAUCUCUGUUGGCCAGAAUAGCUGAGAACUACACGGCUGUCGUAAGUCCAGAUAUUGCAUCCAUAGAUCUGAACACGUUUGAAUUCAACAAACCUUCUCCUUAUGGAAGUAACCAUAACCGUGGCAACAGAGGAUUGAGCAUCA
B20: chr11:4094911:4095012:+|5pUTR|ENSG00000167325|unk|FALSE|unique (ssRNA)
RNA: GGGAGUUCUACAGUCCGACGAUCAGCAGCGCCUGGAACCUAACCCUUCCCACUCUGUCACCUUCUCGAUCCCGCCGGCGCUUUAGAGCCGCAGUCCAGUCUUGGAUCCUUCAGAGCCUCAGCCACUAGCUGCGAUGCAUGUGACAACAGAGGAUUGAGCAUCA
B21: ENSG00000150457:stop:overlap|stop_codon|ENSG00000150457|stop_codon|NA|stop_codon (ssRNA)
RNA: GGGAGUUCUACAGUCCGACGAUCCAGAUUUAGAAAGCUCUGAUCUGGUGGAUCAGACUGAAGGCUGCCAGCCUGUGUACGUGUAGAUGGGGGCCAGGCACCCCCACCACUCGCUGCCUCCCAGGUCAGGGUCCCGGAGCCGGUCAACAGAGGAUUGAGCAUCA
B22: chr17:34256851:34257067:+|3pUTR|ENSG00000108691|msi1|total|mutant (ssRNA)
RNA: GGGAGUUCUACAGUCCGACGAUCUUAAGUAAUGUUAAUUCUUAUUUAAGUUAUUGAUGUUUUAAGUUUAUCUUUCAUGGUACCCGUGUUUUUCCGAUACAGAGACUUGGGGAAAUUGCUUUUCCUCUUGAACCACAGUUCUACCAACAGAGGAUUGAGCAUCA

biological target: MSI1 full-length (mouse, UniProt Q61474 1-362); experiment: nsRBNS (natural sequence RNA bind-n-seq); RBNS binding buffer (assumed for nsRBNS): 25 mM Tris pH 7.5, 150 mM KCl, 3 mM MgCl2, 0.01% Triton X-100, 500 ug/ml BSA, 20 U/ml SUPERase-In, 4 C; UNK is unkempt and MSI1 is Musashi-1; names of the RNAs are library labels; protein concentration not given here; high values mean tight binding
Sequence of UniProt Q61474 (Q61474 whole entry): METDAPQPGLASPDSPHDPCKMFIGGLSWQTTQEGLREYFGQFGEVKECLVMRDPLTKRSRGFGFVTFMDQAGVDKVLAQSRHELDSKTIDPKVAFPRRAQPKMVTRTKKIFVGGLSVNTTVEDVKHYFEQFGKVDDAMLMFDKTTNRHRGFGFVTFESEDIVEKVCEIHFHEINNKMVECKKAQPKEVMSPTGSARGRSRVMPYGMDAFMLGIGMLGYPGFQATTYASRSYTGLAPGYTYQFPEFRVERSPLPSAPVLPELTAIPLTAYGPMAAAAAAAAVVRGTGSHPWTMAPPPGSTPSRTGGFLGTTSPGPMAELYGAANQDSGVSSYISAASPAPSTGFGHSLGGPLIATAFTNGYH

Q: Which binding signal does the source give for B1 here?
A: Its binding signal is 0.884 enrichment R.

Q: Which binding signal does the source give for B2 here?
A: Its binding signal is 0.464 enrichment R.

Q: With B3 as the binder, how does the binding signal read?
A: The binding signal was 0.283 enrichment R.

Q: With B4 as the binder, how does the binding signal read?
A: Its binding signal is 37.8 enrichment R.

Q: B5 was tested. Which binding signal did it give?
A: The binding signal was 0.824 enrichment R.

Q: B6 was tested. Which binding signal did it give?
A: Its binding signal is 0.395 enrichment R.

Q: How did the binding signal turn out when B7 was run?
A: Its binding signal is 12.9 enrichment R.

Q: B8 was tested. Which binding signal did it give?
A: Its binding signal is 5.41 enrichment R.

Q: Which binding signal does the source give for B9 here?
A: Its binding signal is 0.567 enrichment R.

Q: Which binding signal does the source give for B10 here?
A: The binding signal was 0.422 enrichment R.

Q: Which binding signal does the source give for B11 here?
A: Its binding signal is 0.657 enrichment R.

Q: Which binding signal does the source give for B12 here?
A: The binding signal was 0.666 enrichment R.

Q: B13 was tested. Which binding signal did it give?
A: Its binding signal is 0.287 enrichment R.

Q: For B14, which binding signal is on record?
A: Its binding signal is 0.445 enrichment R.

Q: With B15 as the binder, how does the binding signal read?
A: Its binding signal is 0.296 enrichment R.

Q: For B16, which binding signal is on record?
A: The binding signal was 0.558 enrichment R.

Q: How did the binding signal turn out when B17 was run?
A: Its binding signal is 0.364 enrichment R.

Q: Which binding signal does the source give for B18 here?
A: The binding signal was 1.08 enrichment R.

Q: With B19 as the binder, how does the binding signal read?
A: The binding signal was 0.318 enrichment R.

Q: B20 was tested. Which binding signal did it give?
A: Its binding signal is 0.635 enrichment R.

Q: With B21 as the binder, how does the binding signal read?
A: Its binding signal is 0.418 enrichment R.

Q: Which binding signal does the source give for B22 here?
A: The binding signal was 0.643 enrichment R.
